Measurements as given in the supplement of paper PMC12217912.
The other results are listed elsewhere or left out. Sequences were assembled here from the parent chain. Values near 0.05 are background.

B1: TEV protease; numbered along this chain (parent)
chain: MGESLFKGPRDYNPISSSICHLTNESDGHTTSLYGIGFGPFIITNKHLFRRNNGTLVVQSLHGVFKVKDTTTLQQHLVDGRDMIIIRMPKDFPPFPQKLKFREPQREERICLVTTNFQTKSMSSMVSDTSCTFPSGDGIFWKHWIQTKDGQCGSPLVSTRDGFIVGIHSASNFTNTNNYFTSVPKNFMELLTNQEAQQWVSGWRLNADSVLWGGHKVFMVKPEEPFQPVKEATQL

Variants of: B1
Assay: raw area under fraction-flipped curve 0-4 h after induction (AUC4h, not background-subtracted), DNA-recorder readout of cleavage of the substrate (dimensionless); higher = more cleavage of the substrate by the protease variant
Conditions: temperature: 34 °C; time window: 0-4 h after rhamnose induction
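Also: Bxb1 expression induced with 0.2% (w/v) L-rhamnose at OD600 near 0.5, cultures sampled hourly, flipped fraction per protease–substrate barcode pair counted by paired-end Illumina sequencing.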

Variant	area with substrate ENLYFQC	area with substrate ENLYFQD	area with substrate ENLYFQG	area with substrate ENLYFQH	area with substrate ENLYFQI	area with substrate ENLYFQK	area with substrate ENLYFQM	area with substrate ENLYFQN	area with substrate ENLYFQP	area with substrate ENLYFQR	area with substrate ENLYFQS	area with substrate ENLYFQT	area with substrate ENLYFQW	area with substrate ENLYFQY	area with substrate ENLYFQF	area with substrate ENLYFQL	area with substrate ENLYFQQ	area with substrate ENLYFQV	area with substrate ENLYFQE
MGESLFKGPRDYNPISSSICHLTNESDGHTTSLYGIGFGPFIITNKHLFRRNNGTLVVQSLHGVFKVKDTTTLQQHLVDGRDMIIIRMPKDFPPFPQKLKFREPQREERICLVTTNFQTKSMSSMVSDTSCTFPSGDGIFWKHWIQTKDGQCGSPLVSTRDGFIVGIHSASNFTNTNNYFTSVPKNFMELLTNQEAQQWVSGWRLNADSVLWGGHKVFMVKPKEPFQPVKEATQL [E223K]	0.0861	0.0685	0.104	0.0753	0.0639	0.0618	0.0842	0.0715	0.0627	0.0523	0.0982	0.0785	0.0704	0.0687					
MGESLFKGPRDYNPISSSICHLTNESDGHTTSLYGIGFGPFIITNKHLFRRNNGTLVVQSLHGVFKVKDTTTLQQHLVDGRDMIIIRMPKDFPPFPQKLKFREPQREERICLVTTNFQTKSMSSMVSDTSCTFPSGDGIFWKHWIQTKDGQCGSPLVSTRDGFIVGAHSASNFTNTNNYFTSVPKNFMELLTNQEAQQWVSGWRLNADSVLWGGHKVFMVKPEEPFQPVKEATQL [I167A]	0.0543		0.088		0.0508	0.061	0.0489			0.0534	0.0708			0.0465					
MGESLFKGPRDYNPISSSICHLTNESDGHTTSLYGIGFGPFIITNKHLFRRNNGTLVVQSLHGVFKVKDTTTLQQHLVDGRDMIIIRMPKDFPPFPQKLKFREPQREERICLVTTNFQTKSMSSMVSDTSCTFPSGDGIFWKHWIQTKDGQCGSPLVSTRDGFIVGIHSASNFTNTNNYFTSVPKNFMELLTNQEAQQWVSGWRLNADSVLWGGHKVFMVFPEEPFQPVKEATQL [K221F]	0.101	0.0811	0.0918	0.0669		0.0637	0.0696	0.0899	0.0579	0.0638	0.0945	0.0606	0.0591		0.0621	0.0573	0.0629	0.0593	
MGESLFKGPRDYNPISSSICHLTNESDGHTTSLYGIGFGPFIITNKHLFHRNNGTLVVQSLHGVFKVKDTTTLQQHLVDGRDMIIIRMPKDFPPFPQKLKFREPQREERICLVTTNFQTKSMSSMVSDTSCTFPSGDGIFWKHWIQTKDGQCGSPLVSTRDGFIVGIHSASNFTNTNNYFTSVPKNFMELLTNQEAQQWVSGWRLNADSVLWGGHKVFMVKPEEPFQPVKEATQL [R50H]		0.0707	0.0874			0.0707			0.0543	0.0696	0.115		0.0649				0.0821	0.0644	0.0816
MGESLFKGPRDYNPISSSICHLTNESDGHTTSLYGIGFGPFIITNKHLFRRNNGTLVVQSLHGVFKVKDTTTLQQHLVDGRDMIIIRMPKDFPPFPQKLKFREPQREERICLVTTNFQTKSMSSMVSDTSCTFPSGDGIFWKHWIQTKDGQCGSPLVSTRDGFDVGIHSASNFTNTNNYFTSVPKNFMELLTNQEAQQWVSGWRLNADSVLWGGHKVFMVKPEEPFQPVKEATQL [I164D]	0.0547	0.0511	0.0502	0.0909	0.0552	0.0429	0.0545	0.0472		0.0474	0.057		0.0567	0.0409	0.0683	0.0532	0.0395	0.0715	
MGESLFKGPRDYNPISSSICHLTNESDGHTTSLYGIGFGPFIITNKHLFRRNNGTLVVQHLHGVFKVKDTTTLQQHLVDGRDMIIIRMPKDFPPFPQKLKFREPQREERICLVTTNFQTKSMSSMVSDTSCTFPSGDGIFWKHWIQTKDGQCGSPLVSTRDGFIVGIHSASNFTNTNNYFTSVPKNFMELLTNQEAQQWVSGWRLNADSVLWGGHKVFMVKPEEPFQPVKEATQL [S60H]		0.0698	0.133	0.0695	0.0633		0.0874	0.0751		0.0615	0.105	0.076	0.0656		0.0974	0.0647		0.0623	
MGESLFKGPRDYNPISSSICHLTNESDGHTTSLYGIGFGPFIITNKHLFRRNNGTLVVQSLHGVFKVKDTTTLQQHLVDGRDMIIIRMPKDFPPFPQKLKFREPQREERICLVTTNFQTKSMSSMVSDTSCTFPSGDGIFWKHWIQTKDGQCGSPLSSTRDGFIVGIHSASNFTNTNNYFTSVPKNFMELLTNQEAQQWVSGWRLNADSVLWGGHKVFMVKPEEPFQPVKEATQL [V157S]	0.0878		0.0678	0.0697	0.0481	0.0525		0.0616		0.0596	0.0733	0.0704	0.063	0.0616		0.0523	0.0638	0.0594	
MGESLFKGPRDYNPISSSICHLTNESDGHTTSLYGIGFGPFIITNKHLFRRNNGTLVVQSLHGVFKVKDTTTLQQHLVDGRDMIIIRMPKDFPPFPQKLKFREPQREERICLVTTNFQTKSMSSMVSDTSCTFPSGDGIFWKHWIQTKDGQCGSPLVSTRDGFIVGIHSASNFTNTNNYFTSVPKNFMELLTNQEAQQWVSGWRLNADSVLWGGHKPFMVKPEEPFQPVKEATQL [V217P]	0.0563	0.0632	0.0424	0.0525	0.0733	0.0508	0.0594	0.0557	0.0376	0.0563	0.0609	0.0566	0.0563		0.0572	0.0564	0.0599	0.0528	
MGESLFKGPRDYNPISSSICHLTNESDGHTTSLYGIGFGPFIITNKHLFRRNNGTLVVQSLHGVFKVKDTTTLQQHLVDGRDMIIIRMPKDFPPFPQKLKFREPQREERICLVTTNFQTKSMSSMVSDTSCTFPSGDGIFWKHWIQTKDGQCGSPLVSTRDGFIVGIHSASNFTNTLNYFTSVPKNFMELLTNQEAQQWVSGWRLNADSVLWGGHKVFMVKPEEPFQPVKEATQL [N177L]	0.141	0.0554		0.0939	0.0447	0.0646	0.0658		0.0618	0.0445	0.142		0.0716	0.0768	0.14			0.0656	
